From publication doi:10.1101/2020.05.18.103002 (bioRxiv, 2020)
Where no end group is shown, it is not given here.

Target: T1, FITC-conjugated PAK1 peptide (DIQDKPPAPPMRNTST) (also: FITC-conjugated, site not given here)
T1 peptide: DIQDKPPAPPMRNTST
Assay: fluorescence polarisation

B1: NCK2 1|3|2 full length recombinant protein (SH3-shuffled, tag-free) (other)
chain: MTEEVIVIAKWDYTAQQDQELDIRKNERLWLLDDSKTWWRVRNAANRTGYVPSNYVERKNSLKKGSLVKNLKDTLGLGKTRRKPSARDASPTPSTDAEYPANGSGADRIYDLNHVVQTLYPFSSVTEEELSFEKGETMEVIEKPENDPEWWKCKNARGQVGLVPKNYVVVLSEAAAEAPSFLSLRRGTALSNGQGARVLIPAFVKFAYVAEREDELSLVKGSRVTVMEKCSDGWWRGSFNGQIGWFPSNYVLEEADDGPALHPAHTPQISYTGPSASGRFAGREWYYGNVTRHQAECALNERGVEGDFLIRDSESSPSDFSVSLKASGRNKHFKVQLVDSVYCIGQRRFHSMDELVEHYKKAPIFTSEHGEKLYLVRALQ
fold decrease of binding against WT NCK2: ~2 fold
